# Results published in PMC12136788.
# This is one part of the list.
# B1: 112328734_112335137_240_CDS_ENSG00000108055_ENST00000361804|human|control|control (ssRNA)
# RNA: GGGAGUUCUACAGUCCGACGAUCUGGACGAAGAUGACUAAACUCAUCACUGAGAACAAACUGAAUUGCAUAAAAAAAGUUACUUUUUCCAGAUCCAUUUCUGCCCACAAUCACAUUAUGUUUUGAACUGAAGGGAUCUACAAUCAACAGAGGAUUGAGCAUCA
# B2: 85357621_85393026_341_5pUTR_ENSMUSG00000061130_ENSMUST00000080217|mouse|control|control (ssRNA)
# RNA: GGGAGUUCUACAGUCCGACGAUCAAUGAAUCUGGGGCGAAGGUAGAAAGGGAGGUCUCGCGGGCUCGCCCGCCGCACAGCCGCCCGCGGCCCCCGGCUUUCUCCCGAGACGCGACACCGCCUCCGCCGCCGCUUCGCCCUCGGCAACAGAGGAUUGAGCAUCA
# B3: chr3:97503841:97503842:+_ENSG00000113966_ENST00000463745|hu_hu|FALSE|FALSE (ssRNA)
# RNA: GGGAGUUCUACAGUCCGACGAUCAUCUGGAUGAUUCAGAAGAGUAUCGAGUUCUUCUUUGGCCACAACCAUUCUUAAUCUAUCACUACUAUCAAUGACAAAAAUAAUAGCUUGGCCUUCUUUAUAAUAGUGUUCCCAGAGAUUCAACAGAGGAUUGAGCAUCA
# B4: chr14:72190480:72190481:+_ENSG00000197555_ENST00000381232|hu_hu|FALSE|FALSE (ssRNA)
# RNA: GGGAGUUCUACAGUCCGACGAUCAAAUCCCACGGAGUUUAUGGUUCCUUCGGGUUUUUUCCAUCCAAUCAGGUACUUGCUAGUAGCGCCCUGGCGAGGGUAAAAACUCCUAGGACCAGAGGAGGAGGAGGAAGAGGAGGAGAACAACAGAGGAUUGAGCAUCA
# B5: chr14:60920330:60920331:+_ENSMUSG00000021987_ENSMUST00000022563|mus_hu|FALSE|FALSE (ssRNA)
# RNA: GGGAGUUCUACAGUCCGACGAUCUUUUUUAUUUACCCAAAAGUUUUUGAGUAAACUGAAAGUUAGAUACUCCAGGAACAGCAACUCAUUGAGCAAUAAGGCAGUUUAAAAAUAUACAUAUACAUGUACUAUUCAUUGUUUCUCCAACAGAGGAUUGAGCAUCA
# B6: chr4:115894766:115894767:+_ENSMUSG00000028698_ENSMUST00000030464|mus_hu|mus_mus_mus_hu_True|78_98 (ssRNA)
# RNA: GGGAGUUCUACAGUCCGACGAUCUUCCACACGGAAAGUACUUGGGGGUUUUCCAACGCCAGUACAAAGUCCGGCCAAACUACCCGAACAGGGUCCUCCCCCUCUCUCCUACAGAACACAACAAAAUGCCCCCGAACUUUCAAGCAACAGAGGAUUGAGCAUCA
# B7: chr18:35731848:35731849:+_ENSMUSG00000037236_ENSMUST00000166793|perfect_dup|FALSE|FALSE (ssRNA)
# RNA: GGGAGUUCUACAGUCCGACGAUCCAGUGCACUAUGAGCUCCUUGUUGAUUCAAUGAAGAACUCAUUCCAAGAUUCAUUAAACUAGCAAGGCGUGCAGUACCCUGGUUCAUCCUUCCAAGAGAUGCUGGCAUACUUAAAGACUGCAACAGAGGAUUGAGCAUCA
# B8: 32390466_32390586_7011_3pUTR_ENSMUSG00000053774_ENSMUST00000115151|mouse|control|control (ssRNA)
# RNA: GGGAGUUCUACAGUCCGACGAUCAAAAAUGAGAAAUAUACAUUAAGGCUUAGAAAUAUAAUUUUAAAAGCAUAGCUAAGUGUCUUAAAUUUCAUGACCAAUUUUAGAGGAAUUAAGUAAAGAAUGAAGAAGAGACAGGCAUGUCAACAGAGGAUUGAGCAUCA
# B9: 121125820_121125940_1475_CDS_ENSMUSG00000027254_ENSMUST00000094639|mouse|control|control (ssRNA)
# RNA: GGGAGUUCUACAGUCCGACGAUCAAUCUUCUCAGUAGGGUUGGCUGGGAGCCAUACCACCAAGGCAGUGAUGGAGGUCAGGUAGGGGACGGAGAUCUCUGCCUCCUUCCCAUUGGCCAGCACUAUGCCUGUCUUGGCUUUACUCAACAGAGGAUUGAGCAUCA
# B10: chr2:91395433:91395434:+_ENSMUSG00000040549_ENSMUST00000099716|mus_hu|FALSE|FALSE (ssRNA)
# RNA: GGGAGUUCUACAGUCCGACGAUCUGGCUUAAGCAAGAUGAUUUUGGAACCAAAUUCACUUAAGGCUUUCCUCAGUGUCUCUAUACAGGCCACUAUGAUCUUGGGAUUCUUAUUGUCCAAGCCUUUCAGGAGCUCUUCUUGAACCAACAGAGGAUUGAGCAUCA
# B11: chr1:94914635:94914636:-_ENSMUSG00000014602_ENSMUST00000171796|mus_mus|FALSE|FALSE (ssRNA)
# RNA: GGGAGUUCUACAGUCCGACGAUCGAAGGGGGGAUAGGAGAAGGUAGCUCCACAUGAACCUUACAGCCCUACCUGGAGGCAUUAGAAAUAAAUACUUAUAAACAGAACACAGUCUUAUAGUUAAUGUCUCAGAGGACUGUUUCACAACAGAGGAUUGAGCAUCA
# B12: chr12:39756943:39756944:-_ENSG00000139116_ENST00000544797|hu_mus|hu_hu_hu_mus_False|8_98 (ssRNA)
# RNA: GGGAGUUCUACAGUCCGACGAUCGGUUUGGCUGUUACCCCCGAGGGAAUCCUGCAAGAGUCUUGUCAGCUUAGAGUCUCUGUAAGGGACAUGGGUGGCUCUCUUGCUCUUGUCCCCCAAGGCGCUGAUUACAUUGCCAAGAGCCAACAGAGGAUUGAGCAUCA
# B13: chr2:55462594:55462595:+_ENSG00000143947_ENST00000402285|hu_hu|motif|central (ssRNA)
# RNA: GGGAGUUCUACAGUCCGACGAUCUGCCAUAAACACCCCAGCACCACAUUCAUCAGAAGGGCACUCUCGACGAAGGCGACGGAUUUUGCCAUUCUCAUCCACCUUAUAAUAUUUCAGGACAGCCAGCUUAACCUUCUUUCUCUUCAACAGAGGAUUGAGCAUCA
# B14: 90179398_90179518_1584_CDS_ENSG00000171488_ENST00000370454|human|control|control (ssRNA)
# RNA: GGGAGUUCUACAGUCCGACGAUCAAUGGUGGCUGGUAUCAUUACGUUCUUAAUGAUUUCAAGUUUUAGAGAUUGCAACUCUGUGAUUUCAAAAACAGUGUCUGGAAGGCCAGAGAGCAUGAUAAGAGGCAAUUCCAGUCGAUUCAACAGAGGAUUGAGCAUCA
# B15: chr17:64801638:64801639:+_ENSG00000154229_ENST00000413366|hu_mus|hu_hu_hu_mus_False|38_78 (ssRNA)
# RNA: GGGAGUUCUACAGUCCGACGAUCUAUAUAUAUAUAUACAUAUGUACACAUAUAUAGUAAGAGCCUAGUUAAACGUGUAAAGUAGCCAUUCAUUUUUGAAAUUUUAUCUACAUUAAAAAAUUAAUAUAUCUGAUAGAGUGCCAGCAACAGAGGAUUGAGCAUCA
# B16: chr8:42227462:42227463:+_ENSG00000070501_ENST00000265421|hu_hu|FALSE|FALSE (ssRNA)
# RNA: GGGAGUUCUACAGUCCGACGAUCUUCUCCUGCAACUCCAGUGACUCCCAAGGGACGGAUGGUGUACUCAUUGAUUGUGAAACCCUUUUCUAGGGCAUGAGCCCUCAUAUUCUUAUUGAAAAUAUCACUCCCAGUGAAAUAGAGCAACAGAGGAUUGAGCAUCA
# B17: chr3:55808730:55808731:-_ENSMUSG00000027799_ENSMUST00000029374|mus_hu|motif|central (ssRNA)
# RNA: GGGAGUUCUACAGUCCGACGAUCUGAAGUUGUAUGGAUUUUGAAUUCUUUUUCUUCUAUUAUACUGGAUGUACAAGUUAAGUCGGCGCUACCGGUCAUGUGAGCAAGCAAUCCAAGAUCAUCACUAACACCAAGAUGUACUUGCAACAGAGGAUUGAGCAUCA
# B18: chr11:95532483:95532484:+_ENSG00000166037_ENST00000540830|hu_hu|motif|central (ssRNA)
# RNA: GGGAGUUCUACAGUCCGACGAUCGCUGUUGCUUUCUGGAUAGGCAAGUGUAGGCUUACUUGGGGAGCGUCGUAGAUCACGGUUAAGGAAAGGCUUAUCCGAAGGAUAUACUACAUAUGGAGAUGAAGAAUGCCGAACCAUGCUCAACAGAGGAUUGAGCAUCA
# B19: chr7:148072430:148072431:+_ENSMUSG00000025487_ENSMUST00000026560|mus_hu|FALSE|FALSE (ssRNA)
# RNA: GGGAGUUCUACAGUCCGACGAUCAAAGUAAGAGCCACAUUAGGAUCAGUCAUCUGUCUAACUACAUGAAGAAUGAUUUCCACGAGGGACAAAGGGUUCACCCUUAAUGAGACCAUCUCCUUGGGCAAAGCACGGAUCCUGCACCAACAGAGGAUUGAGCAUCA
# B20: chr5:23024286:23024287:-_ENSMUSG00000062604_ENSMUST00000088392|mus_hu|FALSE|FALSE (ssRNA)
# RNA: GGGAGUUCUACAGUCCGACGAUCACACGCCGUGCUCCAGAUGUCCGCAGGGGUGCUGUACCCCGCUCCUAUUAAAACCUCUAUGGAGCGGUACUGACGCGUCUGGAUGUCUUCCGUGAAGUGUUUAUGCACCCAACAAGCAUUCAACAGAGGAUUGAGCAUCA
# B21: chrX:39613801:39613802:+_ENSMUSG00000025862_ENSMUST00000069619|mus_hu|motif|central (ssRNA)
# RNA: GGGAGUUCUACAGUCCGACGAUCCAAAUUUAAAGGUGGAUGGCUCUCCCCUUGCGGAUUAGGCUCUUUAAAAGCAAAUUCGGUGCCAUCUUUGUGUAGCAUGGCAAUGGCUUCUCUUGUUUUCAACUGAUCAAGUCCAAAAGUCAACAGAGGAUUGAGCAUCA
# B22: chr4:144460044:144460045:+_ENSG00000153147_ENST00000283131|hu_mus|hu_hu_hu_mus_False|48_48 (ssRNA)
# RNA: GGGAGUUCUACAGUCCGACGAUCACGGUCCAUAGCCUGAAGAUCAACUUGCGGAUUCCAAUCUGAGUCAUAUAAAAUGACUACAUCAGCAGUCGCAAGAUUGAUGCCCAGACCACCAGCACGUGUGCUUAGCAUAAAUACAAACAACAGAGGAUUGAGCAUCA
# Target: T1, UNK ZnF1-3 (human, UniProt Q9C0B0 31-174)
# T1 sequence: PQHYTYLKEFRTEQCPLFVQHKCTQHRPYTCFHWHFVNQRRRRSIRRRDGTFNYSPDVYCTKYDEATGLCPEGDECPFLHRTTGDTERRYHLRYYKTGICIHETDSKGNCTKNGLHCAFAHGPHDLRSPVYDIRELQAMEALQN
# Experiment: nsRBNS (natural sequence RNA bind-n-seq); RBNS binding buffer (assumed for nsRBNS): 25 mM Tris pH 7.5, 150 mM KCl, 3 mM MgCl2, 0.01% Triton X-100, 500 ug/ml BSA, 20 U/ml SUPERase-In, 4 C; UNK is unkempt and MSI1 is Musashi-1; names of the RNAs are library labels; protein concentration not given here; high values mean tight binding
row,Binder,binding signal [enrichment R]
1,B1,1.14
2,B2,0.505
3,B3,0.787
4,B4,1.41
5,B5,0.975
6,B6,1.09
7,B7,0.662
8,B8,1.96
9,B9,0.385
10,B10,0.721
11,B11,1.06
12,B12,0.587
13,B13,1.3
14,B14,1.1
15,B15,2.88
16,B16,1.18
17,B17,0.871
18,B18,1.19
19,B19,1.35
20,B20,0.868
21,B21,0.899
22,B22,0.633
